± gives the standard deviation of the averaged measurements. This is one part of the list.
Tested on: PfAP2-G AP2 domain (GST-tagged)
Test: gcPBM binding intensity (ln(normalized median fluorescence intensity)); higher = stronger DNA binding
In short: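 GST-fused DNA-binding domains of P. falciparum, expressed in E. coli, were applied at about 25 μg on average for 1 h to an Agilent 4 × 180k array of primer-extended double-stranded 36-bp intergenic genomic probes and negative controls. Binding intensity is the highest Masliner-normalised natural-log median intensity across replicate spots of either probe orientation, measured with Alexa488 anti-GST antibody and a 488 nm scan.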

Sequence | gcPBM binding intensity (ln)
CCCATTTAATATTGAGTGCATTTAAATAAATGTATT | 10.2 ± 0.32
TTTTACAAAGTATGATGTACAAGTATATATAAATAT [XGTACX_site2072] | 11.1 ± 0.72
ACTAACATATATTCAACACACATATACCTTCAACCC [CACACA_site3011] | 9.98 ± 0.014
AAAAAAAAGAATTTACGTACTTATTATTTATATTTT [XGTACX_site5701] | 11.2 ± 0.73
ACTTTTTATTTTTTACTATATATATATATATATATG [TGCATGCA_negctrl_site463] | 10.11 ± 0.099
TACATGAATAAACTTACACACACCCATGCATACATA [CACACA_site97] | 10.15 ± 0.099
TGAAAAGGAAAATTTTGTACATATACATCAAGGATA [XGTACX_site656] | 10.9 ± 0.38
AACATAAGTAAGAATACATGCGGAAATTATATAGAA [TGCATGCA_site112] | 9.985 ± 0.021
TATAAATTTAAAATGACACACACTAAAGTTATTTAA [CACACA_site6700] | 10.1 ± 0.26
TAAATATTATAAATGATACACACTTAAAATACTCAC [CACACA_site2710] | 10.1 ± 0.18
TCCCTTAAAATGATATGTACATAAAAATAAAAAAAA [XGTACX_site836] | 11.4 ± 0.88
CATATATATATATATATATATATATTTATTTATTTA [TGCATGCA_negctrl_site165] | 9.77 ± 0.32
GTCATCAAGTATTAAGTGCATTAAAAATAAAATATA | 10.2 ± 0.34
TAAGGACTAATATTTGAACACACATATAATATATAC [CACACA_site9325] | 10.1 ± 0.078
TATATATTTGTTCACACACACACAAAAAAAAAAAAA [CACACA_site2475] | 10.2 ± 0.7
TTAAAAGAAAATAACACACACAAAAAAAAAAAAAAA [CACACA_site2117] | 9.79 ± 0.42
GTATATAATATTAGTGCACACACAAAAATGTACTAA [CACACA_site8112] | 11 ± 0.65
CTTTTTTTTTGATGTTGTACATATATATTATATAAT [XGTACX_site1321] | 11.3 ± 0.84
AGTTTAATATAAAATACACACTACTCTTATAAATAT [CACACA_site6803] | 9.87 ± 0.085
GAAATAATAAATTAAAAATCGTTTATAACATTTAAC [CACACA_negctrl_site425] | 9.44 ± 0.16
ATTTTCTTTCTATGCACACGCACGTATTTGCACCCA [CACACA_site3350] | 11 ± 0.71
AGTAATATAATATAAGCACACGTGTATTTATTTAGT [CACACA_site4246] | 10.3 ± 0.16
TGGGAGCACAGACACACACACACACCCATATATATA [CACACA_site335] | 10.4 ± 0.22

Sequence | gcPBM binding intensity (ln)
TACAAAATAAAAATAATTCTTTCAAAAAATAATAAA [XGTACX_negctrl_site368] | 9.49 ± 0.18
TGCACATTTATGTAACGTACAAAATATAATATGTTA [XGTACX_site8255] | 11 ± 0.38
GTATAAAAGTAATGTAGTACTTATATATTTTTATTT [XGTACX_site8975] | 11.4 ± 0.69
TCCTTATATTGGCACACACACACAATAAAATGAAAA [CACACA_site4715] | 10.5 ± 0.52
GGTTGCTTCAGTGAATGTACATAGTGGTAAACAAGC [XGTACX_site166] | 11.1 ± 0.58
AAAAAAAAAAGAAACACACACATATATATATATAAT [CACACA_site5052] | 9.67 ± 0.042
TATATATATTCTTTAAAACACACGTAAAGAAGAATT [CACACA_site2718] | 10.18 ± 0.099
ATAAGTGTATAAAAATGTACGTGTATAAAAATATGT [XGTACX_site8235] | 11.3 ± 0.66
CATTTATTTATATACACACACACAAAAAAAAAAAAA [CACACA_site7279] | 9.96 ± 0.35
TGCTATATTATTATCGCACACCGTTGATTCTAAATA [CACACA_site1207] | 9.805 ± 0.078
TATTTTTTATTTTTTTGTACATATTTGATAATTAAT [XGTACX_site316] | 11 ± 0.54
GTAAGCATCAAAAAAGGTACAGAAATTATAAATAAA [XGTACX_site6708] | 11.1 ± 0.78
AAATATTTATATATATGTACACATATAATATTTTTA [XGTACX_site2338] | 11.3 ± 0.73
TTTTTAATTTAAAAAAATAATATTTTATATTCCGAA [CACACA_negctrl_site108] | 9.53 ± 0.099
ATATATGTTATTATTTGTACACACACATATATATCC [XGTACX_site7657] | 11.3 ± 0.79
GAAAATTTATTTTTGGTGCATGTATTTATTTATTTT | 9.825 ± 0.049
ATTTCTAATATTTTTGCACACTAAACAATAAATTTC [CACACA_site3943] | 10.2 ± 0.14
AAAACAAATAAGTAAACACACATATATAATATATAT [CACACA_site2586] | 9.775 ± 0.049
AAAAAAAAAAAAACTAGTACATATATATAGTATGAA [XGTACX_site6279] | 11.1 ± 0.6
ATAACCTAATAATACACACACATGAATATATATAAT [CACACA_site4689] | 10.05 ± 0.099
CTTTTTTTTTTATGCACACACAATTATACATTCCTT [CACACA_site3877] | 10.4 ± 0.33
AATATAGTCTCACATACACACATATATATTTATATA [CACACA_site2503] | 10.02 ± 0.042
ATGTAATATATTATATGTACATATTTTTATGTAGAT [XGTACX_site5945] | 11.3 ± 0.87

Sequence | gcPBM binding intensity (ln)
GAATATAAAAGGAACGGTACAGAAAAAAAAAAAAAA [XGTACX_site3917] | 10.6 ± 0.65
TTTATTTTTTATATATCACTTAAAAAAAAAAAAAAA [CACACA_negctrl_site249] | 9.7 ± 0.42
ATTTATATTTTATATACACACATGAACTTATATGGA [CACACA_site3167] | 10.1 ± 0.15
AAAGATAAAATATATACACACACATAAATACGTACA [CACACA_site8275] | 11.3 ± 0.88
ACAAGTGTATATGTTATATATATATATATATATATA [CACACA_negctrl_site1686] | 10.3 ± 1
TTATTACGAACTCTGCAACATATATAAATAAATAAA [CACACA_negctrl_site44] | 10 ± 0.35
AAAATAATATTTAATACACACATAATTACAATATAA [CACACA_site6510] | 9.925 ± 0.049
TACGTATTCATGTATAGTACTCTTTTTTTTAATAAA [XGTACX_site3299] | 11.1 ± 0.71
CTTATATTAATTATTACACACATATATATAAATGCA [CACACA_site770] | 9.92 ± 0.085
AAAGAAAATAGGTGTACACATAATAAATACAGCTAT [CACACA_site5917] | 11.7 ± 1.1
ATTATATTTGAATGGTGTACTATAATAATGTAGTTT [XGTACX_site8069] | 11.2 ± 0.72
ACATATATATATATATAAATATATATGTATGTATTT [XGTACX_negctrl_site237] | 10.1 ± 0.27
GAATAAATTAAATTCACACATAAAATACAAAATACA [CACACA_site5495] | 9.955 ± 0.078
CATACACGCGGACACACACACACACGCATATATAAC [CACACA_site6427] | 11.5 ± 0.87
TTCATTTTATAAAAAGCACACATATAGTTATATGCA [CACACA_site9228] | 9.79 ± 0.13
AGTTTACATTAAATCACGCACACAAAAAAAAAAAAA [CACACA_site2419] | 10.2 ± 0.49
ATGTCATATATATGTTGTACGAGTTTGTTTATGTAT [XGTACX_site1150] | 11.2 ± 0.68
ATTCATATTTTTCAAGTGCGCATTAAAATATTAACC [GTGCAC_site9741] | 10.3 ± 0.3
TACCTTTTTTATGTTGCACACTGGGATGTTTTCTAA [CACACA_site1653] | 10.3 ± 0.15
TTTCGATTATGTTTTTGTACGCAATATATTAATTCT [XGTACX_site3634] | 11.5 ± 1
AATATATTTTTTTTTGGTACACAAGCACATCTATAC [XGTACX_site2183] | 11.3 ± 0.85
AATGTGCAGAAAAGTGGTACATATGATTGTTAAGAG [XGTACX_site1038] | 11.5 ± 0.8
CCATGATTATTAGATTGTACATAACATACAAATTGA [XGTACX_site314] | 10.8 ± 0.48

Sequence | gcPBM binding intensity (ln)
TTAAAAATAAAACAAAGTACTCAAGTTATTGTCTTT [XGTACX_site1584] | 11.2 ± 0.54
TATGATATGTATGGAAGTACGAAGAGGGATGATCAG [XGTACX_site1677] | 10.7 ± 0.27
CACGCATACAGACACACACACACACCCATATATATA [CACACA_site636] | 10.4 ± 0.31
CGTAAATTTTTCTAAGTGCATGTTAATTTTTCAATT | 10.1 ± 0.17
TAAATACCTATATGGCGTACTATTATCATAGTATAT [XGTACX_site5423] | 11.2 ± 0.77
TATTTATTATGATACTCATATTATTCTATGATTAAA [GTGCAC_negctrl_site486] | 10.2 ± 0.2
GCACAAATCATCAAATGTACAGAAAATGCTGTCAAT [XGTACX_site5037] | 10.8 ± 0.49
TTCCTTCATTGGAAAAGTACACAATATTGTCGTTTA [XGTACX_site8057] | 11.6 ± 0.99
ATATAGGTATAATACACACACTAATATGTAACTGTA [CACACA_site7011] | 9.98 ± 0.085
ATTTTCAAATTAAAATGTACAAATGAAAGAAAGGGA [XGTACX_site7048] | 10.7 ± 0.55
TGAAATAAAATTTGTACACACATATATATATATATA [CACACA_site586] | 11.1 ± 0.81
GTGAATCCTAAGTGTACACATCTTACAGATATATAT [CACACA_site4836] | 11.6 ± 0.82
AACAGACATACATACACACATACATACAGACATACA [CACACA_site1942] | 10.2 ± 0.26
ATATATATATATTTCGCACACATAATCTTATTAAAT [CACACA_site2579] | 10.2 ± 0.3
TAAAATAAAACAAACACACACACACCGACACAAAAA [CACACA_site5993] | 10.4 ± 0.33
TTTCTTAAATATATGCGTACTCAAAATTGTTCTACA [XGTACX_site7995] | 11.5 ± 0.93
AAAAATATAATATAATGTACACATAAACAAAAAAAA [XGTACX_site3658] | 11.4 ± 0.84
TAACCACAAAAATAAAATCAAAAAAAAAAAAAAAAA [CACACA_negctrl_site1727] | 9.46 ± 0.18
TATATATCAATATACACACACACATATTTATTTATA [CACACA_site6858] | 10 ± 0.14
ACATTCTATACATACACACCCACACCCAAAAAAAAA [CACACA_site863] | 10.6 ± 0.49

Reference: the supplement of paper PMC11417369
